# Source: PubChem BioAssay AID504332 (National Center for Advancing Translational Sciences (NCATS), 2011)
# In all, about 350,000 compounds went through this assay and about 31,000 (8.9%) were called active. Inconclusive results, whose numbers are uncertain, are shown with a selection of clear calls. The call rests on the fitted dose curve; in most records, active means well fitted inhibition curve with a large enough effect; inconclusive means small, poorly fitted or top-dose-only effect; inactive means no such curve, though single readings can be large or run the other way. Where the call is inconclusive, the potency comes from a doubtful curve fit.
# Target: Histone-lysine N-methyltransferase EHMT2 (Homo sapiens) (UniProt Q96KQ7)
# Sequence of UniProt Q96KQ7 (Q96KQ7 whole entry, looked up): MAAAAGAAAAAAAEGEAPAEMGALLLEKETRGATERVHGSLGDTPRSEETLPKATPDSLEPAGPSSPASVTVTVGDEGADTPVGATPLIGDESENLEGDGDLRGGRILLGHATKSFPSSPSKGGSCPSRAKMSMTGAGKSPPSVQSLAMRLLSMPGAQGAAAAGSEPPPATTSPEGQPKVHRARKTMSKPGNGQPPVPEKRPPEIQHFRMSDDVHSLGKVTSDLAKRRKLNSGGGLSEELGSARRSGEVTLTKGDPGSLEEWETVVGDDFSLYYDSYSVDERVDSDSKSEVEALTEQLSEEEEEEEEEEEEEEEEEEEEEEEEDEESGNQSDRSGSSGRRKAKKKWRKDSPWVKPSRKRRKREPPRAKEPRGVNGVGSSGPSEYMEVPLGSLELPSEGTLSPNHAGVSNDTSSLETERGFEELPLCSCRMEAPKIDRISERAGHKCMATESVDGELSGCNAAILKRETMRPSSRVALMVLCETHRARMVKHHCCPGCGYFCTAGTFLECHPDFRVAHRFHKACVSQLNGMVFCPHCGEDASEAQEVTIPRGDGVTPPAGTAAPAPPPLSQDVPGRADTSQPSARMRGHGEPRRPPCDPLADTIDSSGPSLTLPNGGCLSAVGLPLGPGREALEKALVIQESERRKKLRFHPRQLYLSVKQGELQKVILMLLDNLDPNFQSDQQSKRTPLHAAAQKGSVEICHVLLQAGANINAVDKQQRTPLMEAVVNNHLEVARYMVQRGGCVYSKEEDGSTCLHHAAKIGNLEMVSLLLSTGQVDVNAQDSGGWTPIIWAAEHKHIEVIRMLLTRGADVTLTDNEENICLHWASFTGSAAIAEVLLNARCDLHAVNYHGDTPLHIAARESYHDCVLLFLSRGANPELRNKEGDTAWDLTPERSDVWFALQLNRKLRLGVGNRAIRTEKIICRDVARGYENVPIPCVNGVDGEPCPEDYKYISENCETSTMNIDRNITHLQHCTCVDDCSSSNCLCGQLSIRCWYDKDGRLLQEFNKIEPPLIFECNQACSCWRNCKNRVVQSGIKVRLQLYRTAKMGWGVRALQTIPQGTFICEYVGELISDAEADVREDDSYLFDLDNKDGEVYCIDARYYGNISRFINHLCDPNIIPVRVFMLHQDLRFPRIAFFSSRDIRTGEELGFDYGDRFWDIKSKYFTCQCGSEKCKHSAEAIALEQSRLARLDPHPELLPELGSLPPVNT
# Test: qHTS Assay for Inhibitors of Histone Lysine Methyltransferase G9a; further: nearly all actives have a fitted effect of over 75% in size
# Conditions: G9a H3K9 monomethylation, AlphaScreen, 2 h; activity, negative = inhibition: at 59 µM (top of the series) unless noted
# Summary of the method: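 Enzyme 20 nM + cpd, 15 min RT; add b-H3K9 pep 500 nM / SAM 20 uM; 2 h RT; anti-H3K9me1 Ab 0.5 ug/mL + SA donor / anti-rabbit acceptor beads 20 ug/mL each, 10 min; AlphaScreen read.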
# On the % scale 0 is the no-effect control and ±100 the full control effect; potency means the concentration at half of the fitted maximal effect; tags describe the fitted curve by direction and shape.
SMILES,Potency,"activity, negative = inhibition"
COc1ccc(S(=O)(=O)n2nc(C)c(S(=O)(=O)N3CCCCCC3)c2C)cc1OC,inactive,
CCOC(=O)N1CCN(C(=O)c2cccc(OC)c2OC)CC1,"inconclusive: 4.47 µM [inhibitor, partial curve, poor fit]",
COc1cccc(-c2cc(C(=O)NCc3ccco3)no2)c1,"inconclusive: 79.4 µM [inhibitor, single point]",
O=C(Oc1cc(=O)oc2ccccc12)c1ccco1,"inconclusive: 89.1 µM [inhibitor, single point]",
C/C(=N\NC(=S)NCCc1ccccc1)c1cccs1,"inconclusive: 39.8 µM [inhibitor, single point]",
CC(=O)c1cccc(N/C=C\c2nnnn2-c2ccc(F)cc2)c1,inactive,
Cc1ccccc1-n1c(-c2ccncc2)n[nH]c1=S,"inconclusive: 1.58 µM [inhibitor, partial curve, poor fit]",
CN(C)CCN=c1cc(-c2ccccc2)oc2ccc(Cl)cc12,"inconclusive: 89.1 µM [inhibitor, single point]",
O=C(NCc1ccco1)C1CCN(C(=O)N2CCOc3ccc(Cl)cc32)CC1,inactive,
CC(C)(C)c1cc(C(=O)NCc2ccco2)ccn1,"inconclusive: 28.2 µM [inhibitor, single point]",
CC(C)C(=O)Nc1cc(=O)[nH]c2ncnn12,"inconclusive: 50.1 µM [inhibitor, partial curve, poor fit]",
Cc1ccccc1-c1nc(C(N)=O)c2c(n1)n(-c1ccc3c(c1)OCO3)c(=O)n2C,inactive,
Cc1ccc(CS(=O)(=O)c2cn(CC(=O)Nc3ccon3)c3ccccc23)cc1,"inconclusive: 89.1 µM [inhibitor, partial curve, poor fit]",
O=C(COC(=O)/C=C/c1ccccc1Cl)NC1CCCC1,,inconclusive: -63.7% [inhibitor]
O=C(CSc1nc2ccccc2s1)NCc1ccc2c(c1)OCO2,"inconclusive: 28.2 µM [inhibitor, single point]",
CC(=O)c1ccc(NC(=S)NNC(=O)c2ccccc2[N+](=O)[O-])cc1,"inconclusive: 7.08 µM [inhibitor, full curve, poor fit]",
O=C(O)CSc1nc2c(cnn2-c2ccccc2)c(=O)n1-c1ccc(Br)cc1,"inconclusive: 89.1 µM [inhibitor, single point]",
CN(c1ccccc1)S(=O)(=O)c1ccc(C(=O)N2CCCC2)cc1,"inconclusive: 10 µM [inhibitor, partial curve, poor fit]",
COc1cc(CNC2CCCCCCC2)c(Br)cc1OCCO,"inconclusive: 79.4 µM [inhibitor, single point]",
O=C(/C=C/c1ccco1)NC(=S)Nc1cccc(-c2nc3ccccc3o2)c1,"inconclusive: 8.91 µM [inhibitor, partial curve, poor fit]",
COc1cc(/C=N/Nc2ccccc2[N+](=O)[O-])ccc1OC(=O)c1ccccc1F,"inconclusive: 50.1 µM [inhibitor, partial curve]",
COc1ccc(OCC(=O)N2CCN(C(=O)c3ccco3)CC2)cc1,"inconclusive: 89.1 µM [inhibitor, single point]",
O=C(O)c1cccc(Nc2nc(Nc3ccccc3)nc(N3CCCC3)n2)c1,"inconclusive: 89.1 µM [inhibitor, single point]",
Cc1ccc(NC(=O)Cc2ccc([N+](=O)[O-])cc2)c(Br)c1,"inconclusive: 22.4 µM [inhibitor, single point]",

SMILES,Potency,"activity, negative = inhibition"
Cc1ccc(-c2nnc(NC(=O)c3ccc4c(c3)OCCO4)o2)c(C)c1,inactive,
N#Cc1nc(COc2ccccc2)oc1N1CCC(Cc2ccccc2)CC1,active: 12.6 µM,
COCCNC(=O)C(c1ccncc1)N(C(=O)c1sc(C)nc1C)c1cccc(C)c1 (stereo not given),inactive,
COC(=O)C1=C(C)OC(N)=C(C#N)C1c1cc(OC)c(OCC(N)=O)cc1Cl (stereo not given),"inconclusive: 79.4 µM [inhibitor, single point]",
COC(=O)c1sc(-c2ccc(Cl)cc2)cc1NC(=O)COCC(=O)O,active: 56.2 µM,
COc1cccc(CNC(=O)CSCc2cnn(-c3ccccc3)c2-n2cccc2)c1,inactive,
CCOc1cccc2sc(N(CCN(CC)CC)C(=O)c3cccc([N+](=O)[O-])c3)nc12,"inconclusive: 79.4 µM [inhibitor, partial curve, poor fit]",
O=C(CC1C(=O)N(c2ccc(F)cc2)C(=O)N1Cc1ccc2c(c1)OCO2)Nc1ccc(F)cc1 (stereo not given),inactive,
CC(=O)C1=C(O)C(=O)N(c2cccc(C(=O)O)c2)C1c1ccc(F)cc1 (stereo not given),active: 25.1 µM,
O=C(O)c1ccc(-n2cc(-c3cc4ccccc4oc3=O)[nH]c2=S)cc1,inactive,
COc1cc(C(=O)NCCc2c[nH]c3ccccc23)ccc1OCc1c(C)noc1C,"inconclusive: 39.8 µM [inhibitor, single point]",
COc1ccccc1NC(=O)COC(=O)COc1ccccc1F,"inconclusive: 1.41 µM [inhibitor, single point]",
CC(=O)c1sc(N/N=C2\CC3CC2C(C)C3(C)C)nc1C (stereo not given),active: 39.8 µM,
Cc1cc(N)ccc1N1CCCC1,"inconclusive: 3.55 µM [inhibitor, single point]",
Cc1c(C(=O)O)cccc1-n1c(C)cc(/C=C(/C#N)C(=O)NCc2ccccc2)c1C,active: 50.1 µM,
O=C(Nc1ccc2c(c1)OCO2)c1cc(Cl)ccn1,"inconclusive: 10 µM [inhibitor, partial curve, poor fit]",
CCN(C(=O)c1ccc(NC(C)=O)cc1)c1ccccc1C,"inconclusive: 39.8 µM [inhibitor, single point]",
CC(C)OC(=O)C(CC(=O)O)NCc1ccccc1 (stereo not given),,inconclusive: -79.4% [inhibitor]
O=C(CSc1nnc(NC(=O)c2c(F)cccc2F)s1)NCc1ccco1,active: 44.7 µM,
Cc1ccc(C)c(/C=C(\C(=O)O)c2ccc(S(=O)(=O)N3CCCCC3)s2)c1,"inconclusive: 56.2 µM [inhibitor, partial curve, poor fit]",
O=C(c1cn(Cc2ccccc2)nc1-c1cccnc1)N1CCN(Cc2c(F)cccc2Cl)CC1,"inconclusive: 7.08 µM [inhibitor, single point]",
Cc1ccc(N2CCN(CCc3nc4cc(NC(=O)c5ccco5)ccc4n3C)CC2)cc1,,inconclusive: -53.5% [inhibitor]
CCOc1ccc(S(=O)(=O)NCC2(N3CCCCC3)CCCCC2)cc1,"inconclusive: 70.8 µM [inhibitor, partial curve, poor fit]",
NC(=O)COC(=O)c1cc(-c2cccs2)nn1-c1ccccc1,inactive,

SMILES,Potency,"activity, negative = inhibition"
O=C(O)c1cc(Cl)c2c(c1)[C@@H]1C=CC[C@@H]1[C@H](c1ccc(S(=O)(=O)N3CCOCC3)cc1)N2,active: 22.4 µM,
COc1ccc2[nH]c(C)c(CCN3C(=O)C4CC=CCC4C3=O)c2c1 (stereo not given),"inconclusive: 89.1 µM [inhibitor, single point]",
CCn1c(=NC(=O)CN2C(=O)CCC2=O)sc2c(OC)ccc(OC)c21,"inconclusive: 89.1 µM [inhibitor, single point]",
Cc1c(N=NC2=C(O)CCCC2=O)c(=O)n(-c2ccccc2)n1C,active: 8.91 µM,
O=C1CC(c2ccccc2)CC(O)=C1C=Nc1ccccc1O (stereo not given),inactive,
CC1=C(OC(=O)C(C)(C)C)C(C)(C)C(c2ccccc2)OC1=O (stereo not given),"inconclusive: 3.55 µM [inhibitor, single point]",
CCOC(=O)c1sc(N)c(C(=O)OCC)c1C,inactive,
CCc1sc(Nc2ccc(C)cc2Br)nc1-c1cc2cccc(OC)c2oc1=O,inactive,
c1ccc2cc(OCc3nc4ccccc4[nH]3)ccc2c1,"inconclusive: 31.6 µM [inhibitor, single point]",
CC(C)c1ccc(NC(=O)C2CCN(S(=O)(=O)c3ccc4c(c3)C(C)(C)C(=O)N4C)CC2)cc1,inactive,
Cc1cc(C)cc(NC(=O)COc2coc(CN3CCc4ccccc43)cc2=O)c1,active: 50.1 µM,
Cc1occc1-c1nnc(SCC(=O)Nc2ccccc2N2CCCCC2)n1C,"inconclusive: 56.2 µM [inhibitor, partial curve, poor fit]",
COc1ccc(N2CCN(C(=O)C(NC(=O)c3c(F)cccc3F)C(C)C)CC2)cc1 (stereo not given),"inconclusive: 79.4 µM [inhibitor, single point]",
COC(=O)c1cccc(NC(=O)CSc2nc(O)c(-c3ccccc3)c(=O)[nH]2)c1,active: 70.8 µM,
COc1ccc(-c2oc3ncnc(NCCCN4CCOCC4)c3c2-c2ccc(OC)cc2)cc1,,inconclusive: -81.4% [inhibitor]
CC(C)n1cc(/C=N/Nc2ccc(Cl)c(C(=O)O)c2)c2ccccc21,active: 10 µM,
CCCn1ncc(CN2CCC(n3nccc3NC(=O)CCc3ccccc3)CC2)c1C,inactive,
O=C(O)c1ccc(NC(=O)[C@H](Cc2ccc(O)cc2)NC(=O)c2ccccc2)cc1,inactive,
CCn1c(N)c(C(=O)COC(=O)CCc2nc3ccccc3c(=O)[nH]2)c(=O)[nH]c1=O,"inconclusive: 0.316 µM [inhibitor, full curve, poor fit]",
CN(Cc1ccc2c(c1)OCO2)C(=O)c1cc(-c2ccccc2)c(N2CCOCC2)s1,"inconclusive: 20 µM [inhibitor, single point]",
COc1ccc([N+](=O)[O-])cc1NC(=O)C1CCCNC1=O (stereo not given),"inconclusive: 17.8 µM [inhibitor, partial curve, poor fit]",
C/C(=N\NC(=S)Nc1ccc(C)cc1)c1cc2ccccc2o1,"inconclusive: 8.91 µM [inhibitor, partial curve, poor fit]",
